# Experimental data as given in publication PMC4336329 (PLoS ONE, 2015).
# Screen size: about 310,000 compounds; about 2,200 (0.71%) showed an effect of 50% or more. Effects have a minus sign here. This is one part of the list.
# Target: human ether-à-go-go-related gene (hERG) potassium channel (human, UniProt Q12809)
# Assay: primary screen, population patch clamp on CHO cells stably expressing hERG
# human ether-à-go-go-related gene (hERG) potassium channel, sequence (Q12809 whole entry, looked up): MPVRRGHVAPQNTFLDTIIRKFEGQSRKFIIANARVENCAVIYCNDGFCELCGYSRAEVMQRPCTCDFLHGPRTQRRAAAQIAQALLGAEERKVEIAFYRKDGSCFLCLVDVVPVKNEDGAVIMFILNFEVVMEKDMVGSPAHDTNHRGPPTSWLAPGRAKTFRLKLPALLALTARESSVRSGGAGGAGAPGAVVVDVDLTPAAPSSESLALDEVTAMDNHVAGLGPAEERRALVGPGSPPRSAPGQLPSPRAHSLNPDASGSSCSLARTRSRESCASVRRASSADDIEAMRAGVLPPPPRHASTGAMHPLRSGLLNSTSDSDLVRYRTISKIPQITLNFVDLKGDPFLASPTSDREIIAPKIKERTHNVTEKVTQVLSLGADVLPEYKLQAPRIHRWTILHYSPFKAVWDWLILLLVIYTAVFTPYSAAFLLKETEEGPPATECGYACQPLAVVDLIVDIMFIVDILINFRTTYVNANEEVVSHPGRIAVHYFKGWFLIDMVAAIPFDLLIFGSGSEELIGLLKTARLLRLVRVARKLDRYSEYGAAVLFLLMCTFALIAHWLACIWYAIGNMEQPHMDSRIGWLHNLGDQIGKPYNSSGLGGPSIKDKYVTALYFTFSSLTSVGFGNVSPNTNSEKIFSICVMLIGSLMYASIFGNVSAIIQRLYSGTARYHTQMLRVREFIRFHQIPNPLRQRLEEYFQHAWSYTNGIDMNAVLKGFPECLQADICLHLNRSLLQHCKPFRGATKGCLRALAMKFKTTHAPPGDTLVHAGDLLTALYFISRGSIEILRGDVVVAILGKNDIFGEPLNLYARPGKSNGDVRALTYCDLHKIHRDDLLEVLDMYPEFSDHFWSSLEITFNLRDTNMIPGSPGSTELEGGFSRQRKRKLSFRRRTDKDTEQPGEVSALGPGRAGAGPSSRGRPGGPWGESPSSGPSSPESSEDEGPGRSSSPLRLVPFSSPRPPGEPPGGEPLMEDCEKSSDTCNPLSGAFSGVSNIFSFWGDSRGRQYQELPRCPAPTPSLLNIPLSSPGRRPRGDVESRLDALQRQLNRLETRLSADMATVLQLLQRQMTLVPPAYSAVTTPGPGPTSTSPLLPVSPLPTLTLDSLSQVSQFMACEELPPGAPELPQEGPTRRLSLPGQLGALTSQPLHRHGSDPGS
row,Compound,"hERG current change (%, negative = inhibition) at 1uM [%]"
1,Cc1ccc(S(=O)(=O)C(CCC(=O)N2CCOCC2)S(=O)(=O)c2ccc(C)cc2)cc1,8.7
2,COc1cc(CCN2C(=O)N[C@@H](CCc3ccccc3)C(C(C)=O)=C2C)cc(OC)c1OC,-1.33
3,Cc1sc2ncnc(N/N=C/c3ccc(O)cc3)c2c1C,6.57
4,COc1ccccc1Sc1nc(-c2ccccc2)ncc1OC,16.7
5,Br.Cc1ccc(N2Cc3ccccc3C2=N)cc1[N+](=O)[O-],7.8
6,Clc1ccc(-n2nnc(-c3nccs3)n2)cc1Cl,17.8
7,CC(=O)Nc1ccc(NC(=O)CCC(=O)Oc2ccc(C)cc2)cc1,16.3
8,N#Cc1ccc(OCC(=O)Nc2ccccc2NS(=O)(=O)c2cccs2)cc1,8.92
9,O=C(/C=C/C=C/c1ccccc1)CC1(O)C(=O)Nc2ccccc21 (stereo not shown),11
10,COc1cc(OC)cc(C(=O)OCC(=O)NC2CCCCCC2)c1,6.3
11,Cc1ccc(SC(C)C(=O)NC2CC2)cc1 (stereo not shown),20.1
12,Cc1ccc(NC(=O)COC(=O)Cn2cnc3ccccc32)cc1S(=O)(=O)N(C)C,1.93
13,O=C(NNc1cc(Br)c(O)c(Br)c1)c1ccccc1,4.03
14,CN(C(=O)COC(=O)c1ccc(C#N)cc1)c1ccccc1,6.48
15,Cc1cc(C)cc(-n2nc(C)cc2N)c1,-7.91
16,CC(=O)c1c(C)[nH]c(C(=O)OCc2ccc([N+](=O)[O-])cc2)c1C,5.66
17,O=C(Cc1cccs1)NCc1ccccc1Br,15.2
18,O=C(Nc1nc2ccccc2[nH]1)c1ccccc1O,19.2
19,COC(=O)C1=C(C)Nc2c(c(=O)n(C)c(=O)n2C)C1c1ccncc1 (stereo not shown),22.4
20,COc1ccc(OCC(=O)NCc2cccnc2)cc1,6.2
21,COc1ccc(CNC(=O)C(C)c2ccc([N+](=O)[O-])cc2)cc1 (stereo not shown),7.69
22,Cc1ccc(C)c(NC(=O)CN2C(=O)CC(C)S(=O)(=O)c3ccccc32)c1 (stereo not shown),6.33
23,COc1ccc(-n2c(SCC(=O)Nc3ccccc3OC)nc(O)c(Cc3ccccc3)c2=O)cc1,4.38
24,Cc1cc(C)nc(NNC(=O)c2ccccc2O)n1,16.3
25,CCN1CCN(CCCNC(=O)CNC(=O)c2nn(-c3ccc(OC)cc3)c(=O)c3ccccc23)CC1,12.9
26,CC(C)NS(=O)(=O)c1ccc(NC(=O)CCc2ccccc2)cc1,-10.5
27,Cc1ccc2oc3nc(C)c(C(=O)Nc4cccc(C(F)(F)F)c4)cc3c(=O)c2c1,3.46

row,Compound,"hERG current change (%, negative = inhibition) at 1uM [%]"
1,COC(=O)C1=C(c2ccc(C(C)=O)cc2)C[C@@H]2CC[C@H]1N2C(=O)N1CCCC1,10.2
2,Cc1nc(N[C@@H](Cc2ccccc2)C(=O)O)c2oc3ccccc3c2n1,7.68
3,CCCCNC(=O)OCCSCCS(=O)(=O)c1ccc(Cl)cc1,7.82
4,CC(C)c1ccc(/C=C2\CC/C(=C\C=N\N(C)C)C2=O)cc1,10.2
5,Cc1cc(S(=O)(=O)Nc2c(NC3CCCCC3)c3ccccc3oc2=O)ccc1F,9.34
6,Cc1c(C(=O)c2ccc(N(C)C)cc2)c2ccccn2c1CCC#N,14.7
7,CC1=CC(C)(C)N2C(=O)C3(C(C#N)=C(N)OC4=C3C(=O)CC(C)(C)C4)c3cc(C)cc1c32 (stereo not shown),7.1
8,CCc1ccc(NC(=O)C/C(C)=N/NC(=O)OCc2ccc(OC)cc2)cc1,-10.1
9,C=CCNC(=S)NNC(=O)c1ccc(OC(C)C)cc1,23
10,Cc1ccc(-c2nc(-c3ccc(Cl)cc3)sc2CC(=O)O)c(C)c1,18.3
11,CC1CC(C)CN(C(=O)COC(=O)Cc2ccc(Cl)cc2)C1 (stereo not shown),11.7
12,C/C(=N/OC(=O)c1ccc(C)cc1)c1ccc(N2C(=O)C3CCCCC3C2=O)cc1 (stereo not shown),16.6
13,Cc1ccc(C(=O)O)cc1N1C(=O)CCCC1=O,10.7
14,CCOc1ccc(C(=O)NC2CCN(CC(=O)NCc3cccs3)CC2)cc1,0.829
15,CCOC(=O)c1c(NCc2ccc3c(c2)OCO3)c2ccccc2[nH]c1=O,0.983
16,CC(=O)N(NC(N)=O)C(C)CC(=O)C1C(C)C=CCC1(C)C (stereo not shown),8.25
17,CCOc1ccc(CC(=NCCc2ccccc2)C2=C(O)CC(C)(C)CC2=O)cc1OCC,6.42
18,COc1cc(NC(=O)CN2C(=O)c3ccccc3S2(=O)=O)cc(OC)c1,3.15
19,Nc1ccccc1SCC(=O)Nc1nccs1,18.3
20,COCCOC(=O)C1=C(C)NC(=O)NC1c1ccco1 (stereo not shown),1.1
21,O=C(CN1CCN(S(=O)(=O)c2ccccc2)CC1)Nc1ccnn1C1CCCC1,-7.43
22,O=C(Nc1ccccc1C(=O)NCCN1CCOCC1)c1ccco1,4.54
23,Cc1ccc(/C=C2\CCCC3=C2NC(=S)NC3c2ccc(C)cc2)cc1 (stereo not shown),8.39
24,N#Cc1ccccc1OCC(=O)Nc1cccc(S(=O)(=O)N2CCCC2)c1,0.957
25,CCOC(=O)c1cnc2c(C(=O)OCC)cnn2c1N,11.1
26,Cc1ccc(S(=O)(=O)NCCC(=O)NC2CCC(C)CC2)cc1 (stereo not shown),7.2
27,CCn1nc(NS(=O)(=O)c2ccc([N+](=O)[O-])cc2)c2cc3ccc(C)cc3nc21,10.5

row,Compound,"hERG current change (%, negative = inhibition) at 1uM [%]"
1,O=[N+]([O-])c1c(NCCCO)cc(Sc2ccc(Cl)cc2)c2nonc12,11.5
2,COc1cc(OC)cc(C(=O)Nc2ccc(NC(=O)c3ccco3)c(Cl)c2)c1,11.6
3,Cc1ccc(C(=O)ONc2ccc(N=NC(=O)c3ccccc3O)cc2)cc1,10.6
4,O=C(NCc1cccs1)c1cc(-c2cccc(Cl)c2)on1,8.06
5,COc1cccc(C(=O)NCC2CCCN(C(=O)c3ccc(C=O)cc3)C2)c1OC (stereo not shown),15.2
6,COc1ccc(C(=O)Oc2cc(N)n(S(=O)(=O)c3ccc(C)cc3)n2)cc1,15.8
7,COc1cc(C(=O)Nc2ccc3c(c2)OCO3)ccc1-n1cnnn1,-17.8
8,Cc1c(NC(=O)c2cccs2)cccc1C(=O)O,-7.28
9,Cc1coc2c1C(=O)C(=O)c1c-2ccc2c1CCCC2(C)C,13.4
10,CCc1nnc(NC(=O)C2CCN(S(=O)(=O)c3ccc(C)cc3)CC2)s1,11.3
11,O=C(O)c1ccc(S(=O)(=O)NC2CC2)cc1,10.7
12,COc1ccc(CC(=O)NCc2nnc(SCCOc3ccccc3)n2C)cc1,-0.497
13,COc1ccc(CC(=O)Oc2ccccc2C)cc1,13.6
14,COc1cccc(/C=C2\SC(=S)N(c3cccnc3)C2=O)c1OC,8.38
15,COc1ccc(NC(=O)NC2(C(=O)N3CCN(C)CC3)CCCCC2)cc1,10.9
16,O=C(COC(=O)Cc1ccc(Br)cc1)Nc1ccc(N2CCOCC2)cc1,10
17,OCCCNc1ncnc2sc(-c3ccccc3)cc12,4.89
18,O=C(CSc1ccc2ccccc2c1)Nc1ncccn1,8.81
19,CN1CCCCCC1C(=O)N1CCC(N2CCC(C(=O)N3CCOCC3)CC2)CC1 (stereo not shown),2.86
20,Cc1cccc(OC2CCN(Cc3c(C(=O)N4CCCC4)nc4ccccn34)CC2)c1,-20.2
21,CCN(CC)CCNC(=O)c1ccccn1.O=C([O-])/C=C\C(=O)[O-],9.35
22,Cc1ccccc1NC(=O)NCCc1nc2ccccc2[nH]1,-3.49
23,COc1ccc(S(=O)(=O)N2CCOCC2)cc1NC(=O)COc1ccccc1,-12.1
24,COc1ccc(CCCC(=O)N/N=C/c2ccccc2OC)cc1,10.9
25,O=C(Cc1ccc(Cl)c(Cl)c1)NCC1(N2CCOCC2)CCCCC1,5.37
